# Test results as given in the supplement of paper PMC3334620.
# Over roughly 33,000 sequences, “E-score (-0.5 to 0.5)” has its median near -0.012; the highest 2% begin near 0.29. This is one part of the list.
# Target: T1, Ybr033w (UniProt P38073)
# T1 sequence: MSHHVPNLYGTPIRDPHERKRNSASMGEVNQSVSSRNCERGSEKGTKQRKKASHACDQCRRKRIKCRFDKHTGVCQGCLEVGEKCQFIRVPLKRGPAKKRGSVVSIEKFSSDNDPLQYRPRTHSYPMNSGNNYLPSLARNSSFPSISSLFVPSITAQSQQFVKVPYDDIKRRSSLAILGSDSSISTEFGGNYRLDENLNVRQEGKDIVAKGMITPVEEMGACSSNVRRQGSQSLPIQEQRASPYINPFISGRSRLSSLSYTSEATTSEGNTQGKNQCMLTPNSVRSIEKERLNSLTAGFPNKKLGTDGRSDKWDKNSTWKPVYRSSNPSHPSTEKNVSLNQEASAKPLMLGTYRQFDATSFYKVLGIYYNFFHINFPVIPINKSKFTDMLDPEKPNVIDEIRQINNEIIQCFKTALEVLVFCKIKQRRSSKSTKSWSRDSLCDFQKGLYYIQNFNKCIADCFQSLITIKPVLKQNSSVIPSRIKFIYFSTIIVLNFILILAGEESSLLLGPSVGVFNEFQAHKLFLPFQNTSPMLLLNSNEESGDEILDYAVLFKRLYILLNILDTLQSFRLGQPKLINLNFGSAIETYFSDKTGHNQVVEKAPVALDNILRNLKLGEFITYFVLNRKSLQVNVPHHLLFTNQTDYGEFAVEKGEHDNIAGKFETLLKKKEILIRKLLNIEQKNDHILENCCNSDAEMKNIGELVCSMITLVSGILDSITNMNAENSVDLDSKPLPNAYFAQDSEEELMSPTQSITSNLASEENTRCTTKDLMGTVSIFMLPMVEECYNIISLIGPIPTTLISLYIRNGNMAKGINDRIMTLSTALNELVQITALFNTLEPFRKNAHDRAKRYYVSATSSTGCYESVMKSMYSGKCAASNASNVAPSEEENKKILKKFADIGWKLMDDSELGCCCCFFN
# Experiment: PBM E-score (8-mer binding enrichment) (E-score (-0.5 to 0.5)); higher = stronger / more preferred TF binding; most listed sequences are background and not binding sites
# Conditions: protein concentration: 200 nM; construct: GST-full length
# How it was run: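 Masliner-normalised scans of fluorescent anti-GST signal were the basis for scoring. That signal came from GST-tagged yeast transcription factors applied at about 100-200 nM to double-stranded universal all-10-mer Agilent arrays on fresh or once-stripped slides. Each ungapped eight-base word, pooled with its reverse complement, received an E-score from the Universal PBM Analysis Suite.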
row,Sequence,PBM E-score
1,CAGCGTGA,-0.171
2,AGTGTCAT,0.115
3,AAGATAAA,0.257
4,ATACCCAC,0.0343
5,ATTCGACG,0.156
6,AGTGTGGA,0.145
7,TATTCAAA,0.155
8,GACGAAAC,-0.0385
9,ACATTCCC,0.0614
10,GCGCGCGA,0.111
11,ACAGATGT,-0.0123
12,AGTCGACT,0.204
13,ACTTGGAG,-0.0202
14,ACTATGGC,-0.0489
15,AGGTTTGC,0.0859
16,GGTGCGCA,-0.0323
17,TGGGAGAA,-0.0262
18,ACATCCGC,-0.0234
19,ATCAGCCG,-0.0949
20,ACTCCCAG,-0.191
21,ACAGGAGA,-0.0122
22,CATCCGAC,0.0138
23,ACAGGATG,0.0872
24,ATAAGGAA,0.0859
25,GGGATTAA,0.411

row,Sequence,PBM E-score
1,AGAAATCT,0.203
2,GACATGCC,-0.176
3,GTCATCTA,0.00626
4,GTGTTGCA,0.0272
5,AGCCCTAC,-0.0737
6,CTATTAAC,0.268
7,CAATAGCG,-0.00568
8,ACACATTG,0.0863
9,CGCTGTAA,0.0392
10,ACGAACAT,0.151
11,ATTTTCGG,0.161
12,TTATACAA,0.263
13,ATTGACTG,-0.0296
14,CATCTCCA,-0.00049
15,CCGGGACG,-0.191
16,ACTCCCAT,-0.00516
17,GGCCTCCC,-0.219
18,AGAATTCA,0.116
19,CTTCTGGA,0.0505
20,ACTGCAGT,-0.218
21,TGCTTCCA,-0.105
22,AGGGCCAG,-0.163
23,GTGAGCAA,-0.0113
24,GCGATGCC,-0.295
25,CCCCTCAC,-0.134

row,Sequence,PBM E-score
1,GAGTCAGC,-0.162
2,CCTAGGAC,-0.087
3,GGAACTTA,0.15
4,AGACATGA,0.0107
5,GCTTCTGA,-0.0755
6,GCTACGCA,-0.00233
7,ATTCACAC,0.0769
8,AAGAGCGT,0.00139
9,AAGATAGG,0.00494
10,AAGGCCCG,-0.138
11,ATTGGGGC,-0.0872
12,AGCATATG,0.0436
13,ACAAATCG,0.145
14,AGATAGAA,0.0422
15,ATCAACAG,0.269
16,CTTATCGA,0.215
17,TAAACCCA,0.169
18,CATGAGGC,-0.227
19,GTCTATAA,0.163
20,ACACTATA,0.238
21,AGCTCCAT,-0.166
22,GGTATATA,0.134
23,CTCCGTGC,-0.113
24,ACAGGGAC,-0.0996
25,GCGCTTAC,-0.0871

row,Sequence,PBM E-score
1,AACAACAT,0.178
2,CACCCGCA,-0.177
3,GACATAAC,0.169
4,AGATTTTG,0.252
5,CACAGAGC,-0.121
6,AGTGTAGG,-0.0647
7,TGCGGACA,0.0588
8,GGGCTACA,-0.244
9,ACTCAAGT,0.0149
10,CGGTAAGC,-0.0409
11,AGCTTAAA,0.0992
12,AACCTATG,0.107
13,GTCGCGAC,0.234
14,CCGCAAGC,-0.195
15,CACGTGCA,-0.267
16,CTTAGCAA,0.0907
17,GAAATTCA,0.228
18,ACTGATTC,-0.0423
19,ACAAAGGC,-0.0579
20,AATGTGCG,0.0594
21,AGAACATC,0.101
22,CTAACTTC,0.172
23,GGCACTGA,-0.0563
24,AGCTTCTG,-0.0239
25,AACGTGCC,-0.111

row,Sequence,PBM E-score
1,GCTTCAAA,0.119
2,GGACCTCA,-0.205
3,ATGAGGGC,-0.175
4,CGATCAGC,-0.0315
5,AAGGTTAG,-0.121
6,AGATCCCG,0.103
7,GGCCAGTA,-0.199
8,CGTATTTA,0.311
9,CAGGGCCC,-0.323
10,ACTCTCAA,0.161
11,AGGCTACA,-0.123
12,CCAGCACC,-0.243
13,CCTTACCA,-0.00851
14,ACCACCCC,-0.279
15,AATGTTAT,0.194
16,ACTTAAAG,-0.119
17,CTGTTAAC,0.151
18,CACCTCTA,0.0186
19,CAACGCCC,-0.241
20,CGGCTTGA,0.00226
21,TAAACAAA,0.245
22,CCTTAATC,0.12
23,CGCTGCTC,-0.233
24,AAATTCGC,0.216
25,ATCGCGTG,-0.0579

row,Sequence,PBM E-score
1,CAATACAG,-0.105
2,CCGACAGG,-0.0474
3,CTACAATC,0.233
4,CGGATATA,0.345
5,CTTTGGAA,0.0885
6,CAGCTCCC,-0.352
7,GGTGACGA,0.0876
8,GAACCTCC,-0.195
9,ATTAAACA,0.312
10,AATATCTA,0.23
11,ACTGAATG,0.0593
12,CGCCTACG,-0.187
13,GGAACCTA,-0.0963
14,ATGAACGA,0.0138
15,ATTAGGCG,-0.0373
16,AATAATCT,0.285
17,TGACCAAA,0.0924
18,CCCTAGGG,-0.259
19,ATGACATC,0.0254
20,CACCTCAA,0.0296
21,AAAGACCA,-0.147
22,TTCAGGAA,0.104
23,CTTGCCAA,0.0434
24,CACATGCC,-0.0396
25,CTTGGGGA,-0.145

row,Sequence,PBM E-score
1,ACTCGCAT,0.106
2,GTTAGATA,0.283
3,CCGTAAGG,-0.373
4,TGACAACA,-0.00809
5,ACTAGGCC,-0.185
6,AGAGGTGG,-0.156
7,AGTAAAGG,-0.0445
8,GAGCAGAC,-0.171
9,CACGCGAG,-0.0117
10,TCCAAGCA,0.0722
11,CTGTCTAA,-0.0578
12,TCTAGGCA,0.111
13,CACGGTCG,-0.258
14,GATTCCGC,-0.0637
15,GGCTTTTA,-0.17
16,ACGGTGGG,-0.186
17,ATCGTAAC,0.121
18,CGGTACCG,-0.0641
19,AAATAAGC,0.0677
20,ACTTGTAA,0.0833
21,CGCGAGGA,-0.0663
22,AATATGTC,0.142
23,GCTGGTCC,-0.271
24,GCCAACTA,-0.0239
25,ATTTAGTC,0.0709

row,Sequence,PBM E-score
1,CGAAAAGC,-0.0982
2,CAGAGGAA,-0.0525
3,CCCGTGTC,-0.274
4,CCATTCGC,-0.238
5,TGTCGTAA,-0.0536
6,CATCGGGC,-0.228
7,AAAGTAAG,0.0621
8,TGGATACA,0.0503
9,CTAAACAC,0.0111
10,CCCGTTGA,-0.125
11,GGCGGACC,-0.288
12,GCCAGCAA,-0.0918
13,ACGACTAA,-0.0572
14,CAAGGCCA,-0.0609
15,CGTGAGGC,-0.115
16,CACCTCAG,-0.0727
17,AGGGATCG,-0.0828
18,CAGATTGC,-0.00774
19,ACCGCCCT,-0.152
20,ACGACTAT,0.049
21,CTCATCCC,-0.189
22,GGCGGGAA,0.0258
23,CATCGATA,0.166
24,ACACCCCC,-0.362
25,CGCCGACG,-0.279

row,Sequence,PBM E-score
1,CAGCTTCC,-0.0219
2,GGCGCCAC,-0.329
3,GTGGGAAC,-0.164
4,CCACAGGC,-0.336
5,GCCACAAC,0.0425
6,AGTACCGA,-0.154
7,AGAGCGCC,-0.18
8,GATTGACC,-0.132
9,ACGAGCCA,-0.163
10,AAGCCCGC,-0.212
11,GACTGATC,-0.13
12,AGCCATCG,-0.1
13,AGTCTAAT,0.0593
14,AGGGTCTG,-0.275
15,GATTGACA,0.154
16,CCAAAGAA,0.101
17,AGACATTC,-0.00346
18,CCTGTGCA,-0.185
19,CAGACCAG,-0.0218
